Measurements as given in PubChem BioAssay AID1159614 (National Center for Advancing Translational Sciences (NCATS), 2016).
Screen size: about 45,000 compounds; about 65 (0.1%) were called active. Calls come from the whole dose curve; as a rule, active = well fitted activation curve with a large enough effect; inconclusive = small, poorly fitted or top-dose-only effect; inactive = no such curve, though single readings can be large or run the other way. The list shows a part of the results.

target: Galactocerebrosidase (Homo sapiens) (UniProt P54803); assay: A Novel Cell-Based Assay to Identify Small Molecules for B -Galactocerebrosidase; conditions: 145M-Twi-hGALC-G270D cells (Twitcher mouse brain line with human GALC G270D), HMU-beta-Gal fluorescence, 48 h; series mostly up to 57.5 µM; activation: at the top concentration; note: 0% is about no effect; nearly all actives have a fitted effect of over 65% in size
Chain of UniProt P54803 (P54803 whole entry, looked up): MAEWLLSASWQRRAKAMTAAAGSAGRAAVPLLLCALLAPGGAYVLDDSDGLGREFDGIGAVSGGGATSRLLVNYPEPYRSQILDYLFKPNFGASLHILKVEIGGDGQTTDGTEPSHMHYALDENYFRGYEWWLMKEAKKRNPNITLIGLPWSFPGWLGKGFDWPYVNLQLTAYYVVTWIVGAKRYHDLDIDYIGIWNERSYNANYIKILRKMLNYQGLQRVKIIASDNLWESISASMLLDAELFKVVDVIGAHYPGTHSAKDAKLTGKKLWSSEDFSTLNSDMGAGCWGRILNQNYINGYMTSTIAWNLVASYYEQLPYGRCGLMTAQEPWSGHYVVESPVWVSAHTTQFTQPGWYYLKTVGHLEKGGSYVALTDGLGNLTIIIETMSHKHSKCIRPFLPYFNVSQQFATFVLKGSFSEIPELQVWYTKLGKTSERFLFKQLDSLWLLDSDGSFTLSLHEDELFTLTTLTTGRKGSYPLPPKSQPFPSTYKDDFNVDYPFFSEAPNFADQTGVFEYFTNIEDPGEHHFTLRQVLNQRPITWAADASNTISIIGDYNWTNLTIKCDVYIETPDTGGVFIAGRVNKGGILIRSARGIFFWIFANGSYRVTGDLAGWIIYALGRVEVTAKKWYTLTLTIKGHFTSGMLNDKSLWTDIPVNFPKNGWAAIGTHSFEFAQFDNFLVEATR
Outline: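 Brain-derived Twitcher mouse 145M-Twi cells stably expressing human GALC-G270D or wild-type GALC, treated live, then residual GALC activity read by fluorescence of HMU-b-Gal substrate (0.1 mM final) in citrate-phosphate buffer pH 5.2 with sodium taurocholate. Signal increase indicates enhancement.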

activation, inactive:
COc1ccc(NC(=O)c2sc3nc(C)c(C(=O)Nc4ccc(C)cc4C)c(-c4ccc(Cl)cc4)c3c2N)cc1 -5.89%, COc1ccc(OC)c(NC(=O)CSC2=Nc3ccccc3C3=NC(CC(=O)NCc4ccco4)C(=O)N23)c1 (centres undefined) -12.7%, CCN(C(=O)c1nn(-c2ccc(OC)c(Cl)c2)c(=O)c2c1c1ccccc1n2C)c1cc(OC)ccc1OC -16.4%, COc1ccc(-c2nc3sc(CCNC(=O)C(=O)Nc4cc(C)cc(C)c4)c(C)n3n2)cc1 -4.72%, Cc1ccc(NC(=O)c2cccc(NC(=O)N3CCSc4ncccc43)c2)cc1Cl 1.99%, COc1ccc(N2CCN(C(=O)Cn3ncc4c3-c3cc(C)ccc3OC4)CC2)cc1 -8.34%, COc1cc(OC)cc(C(=O)Nc2cc(-c3nc4ccccc4s3)ccc2OC)c1 -6.3%, CCOc1ccc(NC(=O)CN(C)S(=O)(=O)c2ccc3c(c2)c(=O)n(C)c(=O)n3C)cc1 10.4%, Cc1ccc(C(=O)NCC(c2cccs2)S(=O)(=O)c2cccs2)cc1C (centres undefined) -18.4%, Cc1ccc(N2CCN(C(=O)CCc3c(C)nc4ncnn4c3C)CC2)c(C)c1 -28.9%, Cc1ccc(C)c(CN2C(=O)c3ccccc3Sc3ccc(C(=O)NC4CCCC4)cc32)c1 -11.8%, Cc1ccc(-n2ncc(C(=O)N3CCc4ccccc4C3)c2C2CCN(C(=O)OC(C)(C)C)CC2)cc1C -1.57%, COc1ccc(NC(=O)c2c(C)oc3ccc(O)c(CN4CCCC(C)C4)c23)cc1Cl (centres undefined) -14.8%, COc1cccc(CNC(=O)CSc2ncc(S(=O)(=O)c3ccc(C)c(Cl)c3)c(=O)[nH]2)c1 -17.6%, CCn1cc(C(=O)NCCc2ccc(OC)c(OC)c2)c(=O)c2cc(S(=O)(=O)N3CCc4ccccc4C3)ccc21 -8.06%, COc1ccc(-c2nc(CN3CCC(C(=O)NCCN(CC(C)C)CC(C)C)CC3)c(C)o2)cc1OC -8.93%, CC(C)(C)C(=O)OCc1cc(=O)n2nc(C3CCCCC3)sc2n1 -10.5%, COc1ccccc1-c1noc(-c2ccc(NCCc3ccccc3)c([N+](=O)[O-])c2)n1 -7.54%, CCS(=O)(=O)c1ncc(Cl)c(C(=O)N(Cc2ccccc2)Cc2ccco2)n1 -17.6%, CCc1ccc(NC(=O)Cn2c(=O)n(Cc3ccccc3)c(=O)c3oc4ccccc4c32)cc1 -16.7%, COc1ccc(NC(=O)CSc2nc3c(c(=O)[nH]2)CN(Cc2ccccc2)CC3)cc1Cl -14.1%, COc1cccc2cc(-c3nc(Cl)c4c5c(sc4n3)CC(C)CC5)c(=O)oc12 (centres undefined) -1.43%, COC(=O)c1ccccc1NC(=O)CN1C(=O)COc2ccccc21 -0.695%, Cc1ncc(CO)c2c1Oc1nc(-c3ccccc3F)nc(SCC(=O)N3CCCCC3)c1C2 -3.64%, CCc1ccc(NC(=O)c2cnn(-c3c(C)cccc3C)c2C2CCNCC2)cc1 -17.3%, CCOc1cc(C(=O)Nc2c(NC)c3ccccc3oc2=O)cc(OCC)c1OCC -21.4%, Cc1ccc(S(=O)(=O)c2cn(C)c3cc(N4CCCC4)c(F)cc3c2=O)c(C)c1 -11.9%, Cc1ccc(CCNc2nc3ccccc3c3nc(-c4ccccc4)nn23)cc1 -9.91%, Cc1oc(-c2ccc(Cl)cc2)nc1CSc1nnc(C)n2c1cc1sccc12 -5.98%, CCc1cccc(C)c1NC(=O)Nc1csc2c1CCCC2 -9.42%, Cc1ccc(C)c(NC(=O)CSc2nncn3c2cc2sccc23)c1 -2.75%, COc1ccc2sc(N(Cc3cccnc3)C(=O)c3ccco3)nc2c1 -10.8%, O=C1CN(C(=O)c2ccccc2)C(c2ccc(F)cc2)c2cc(Br)ccc2N1 (centres undefined) -7.88%, COc1ccc(CN2C(=O)N(c3ccc(F)cc3)C(=O)C2CC(=O)Nc2ccccc2)cc1 (centres undefined) -9.26%, CCn1c(=O)cc(OCC(=O)NCc2ccc(F)cc2Cl)c2ccccc21 1.91%, CCOc1ccc(N2CC(c3nc4ccccc4n3CCC3CCCCC3)CC2=O)cc1 (centres undefined) -17.5%, CCCNC(=O)C1CCN(c2cc(C)nc3c(-c4ccc(OC)c(OC)c4)c(C)nn23)CC1 -9.71%, CCOC(=O)c1ccc(N2C(=O)c3[nH]nc(-c4ccc(OC)cc4)c3C2c2ccc(C)cc2)cc1 (centres undefined) -10.7%, COC(=O)c1cc(NC(=O)Cn2ncc3c2-c2ccccc2OC3)cc(C(=O)OC)c1 6.23%, COc1ccc(-c2noc(-c3ccc(NC4CCCCC4)c([N+](=O)[O-])c3)n2)cc1OC -5.85%, O=C(NCCc1c[nH]c2ccccc12)Nc1ccccc1C(F)(F)F -27%, N#Cc1ccccc1CSc1nnc(-c2ccccc2)o1 -10.2%, Cc1ccc(-n2c(=O)c3c(C)c(C)sc3n(CC(=O)c3ccc(Cl)cc3)c2=O)cc1C 2.43%, COc1cc(Nc2ncnc3onc(-c4ccc(Cl)cc4)c23)cc(OC)c1 -23.2%, COc1cc(C(=O)Nc2ccc(OCc3cc(=O)n4ccc(C)cc4n3)cc2)cc(OC)c1OC -15.4%, CCCn1c2ccccc2c2cnn(CC(=O)N(CCCOC(C)C)Cc3ccco3)c(=O)c21 9.1%, Cc1cccc(N2CCN(S(=O)(=O)c3c(C)[nH]c(=O)[nH]c3=O)CC2)c1C -1.46%, N#Cc1c(C(F)(F)F)cc(-c2cccs2)nc1SCC(=O)Nc1ccc(Cl)cc1 -14.8%, Cc1ccn2c(Nc3ccc4c(c3)OCO4)c(-c3ccco3)nc2c1 -9.69%, COc1ccc(N2CCN(C(CNS(=O)(=O)c3c(C)cc(C)cc3C)c3ccco3)CC2)cc1 (centres undefined) -10.9%, COc1ccc2c(C)cc(SCC(=O)Nc3nsc(-c4ccc(C(C)(C)C)cc4)n3)nc2c1 -23.3%, C[C@H]1C[C@H]2[C@@H]3CCC4=CC(=O)C=C[C@]4(C)[C@H]3C(=O)C[C@]2(C)[C@@]1(O)C(=O)CO -5.37%, COc1cc(NC(=O)CCCSc2nc(-c3ccco3)cc(C(F)(F)F)n2)cc(OC)c1OC 3.27%, CC1(C)O[C@@H]2C[C@H]3[C@@H]4C[C@H](F)C5=CC(=O)CC[C@]5(C)[C@H]4[C@@H](O)C[C@]3(C)[C@]2(C(=O)CO)O1 -5.9%, CCC(Cc1ccccc1)NC(=O)c1csc2c1CCCCC2 (centres undefined) 16.8%, COc1cccc(Cn2c(SCc3ccc(C(=O)N4CCC(C)CC4)cc3)nc3ccncc32)c1 2.05%, COc1ccc(CNC(=O)CN2CCSc3ccccc32)c(OC)c1 -13.8%, CCN(CC)C(=O)Cn1c(SCC(=O)Nc2ccc(C)c(C)c2)nc2ccccc21 -7.33%, COc1ccccc1NC(=O)C1=C(C)Nc2ncnn2C1c1ccc[nH]1 (centres undefined) -8.35%, O=C(Cn1c(=O)oc2ccccc21)NCc1ccc(Cl)cc1 -10.2%, CCOC(=O)c1c(Nc2ccccc2)nnc(-c2ccccc2)c1-c1ccccc1 -7.56%, CCN(c1ccccc1)S(=O)(=O)c1cc(C(=O)Nc2ccc(Br)cc2)ccc1F -10%, CC(C)(C)OC(=O)N1CCC(c2c(C(=O)NCCN3CCOCC3)cnn2-c2ccccc2)CC1 -8.96%, COc1ccc2oc(-c3ccc(C)c(NC(=O)c4ccc(N5CCCCC5)c([N+](=O)[O-])c4)c3)nc2c1 -11.1%, Cc1ccccc1C(=O)Nc1ccccc1C(=O)OCc1cc(=O)n2nc(C3CC3)sc2n1 -14.1%, COc1cccc(C(=O)Nc2ccc3c(c2)CCCN3C(=O)c2cccs2)c1OC -18.6%, CCc1ccc(-n2c(=O)c3cccnc3n2CC(=O)N(CC)c2cccc(C)c2)cc1 -19.2%, Cc1ccc(NC(=O)CN2C(=O)C(c3ccccc3)=NC2(C)C)cc1C -5.7%, CCOc1ccc(S(=O)(=O)n2nc(C)c(S(=O)(=O)N3CCCCCC3)c2C)cc1 -8.1%, Cc1cc2oc(C(=O)N(Cc3ccccc3)C3CCS(=O)(=O)C3)cc(=O)c2cc1C (centres undefined) -7.38%, Cc1ccc(-n2ncc3c(NCCc4ccccc4)ncnc32)cc1 -1.25%, CN1CCN(c2ncc3c(n2)CCN(Cc2ccccc2Cl)C3)CC1 -8.78%, CCc1ccc(NC(=O)CSc2nnc(-c3nonc3NC(C)=O)n2-c2ccccc2)cc1 -11.1%, CCOc1ccc(Nc2c(S(=O)(=O)c3ccc(C)cc3)cnc3ccccc23)cc1 -21.4%, Cc1c2cnn(-c3ccccc3)c(=O)c2c(C)n1CC(=O)NCc1ccc(Cl)cc1 -9.62%, Cc1[nH]c(C)c(Cl)c(=O)c1Cl -16.9% [at 23.8 µM], Cc1cc(-c2nc3ncccc3o2)ccc1NC(=O)COc1ccc(C(C)(C)C)cc1 -10%, CCOc1ccc(NC(=O)Cn2cnc3nc4c(cc3c2=O)CCCC4)cc1 -8.18%, COc1ccc(CCNC(=O)Cn2c(C)c3cnn(-c4ccccc4)c(=O)c3c2C)cc1OC -11%, COc1ccc(-c2cc(C)no2)cc1S(=O)(=O)Nc1cccc(C(F)(F)F)c1 -19.2%, Cc1c(CCNC(=O)c2ccc(C(F)(F)F)cc2)sc2nc(-c3ccc(F)cc3)nn12 -7.87%, CC1=C(C(N)=O)C(c2ccc(C(C)C)cc2)n2nc(SCc3ccccc3F)nc2N1 (centres undefined) -11.3%, CCn1cc2nc(SCc3cccc(C(F)(F)F)c3)n(CCc3ccccc3)c(=O)c2n1 -14.5%, Cc1cc(O)c(C)c(C)c1O -5.5%, Fc1ccc(-n2ncc3c(Nc4ccc(Oc5ccc(Cl)cc5)cc4)ncnc32)cc1 -10.5%, COc1ccc(-c2[nH]c(-c3ccc(F)cc3)nc2SCC(=O)Nc2ccc(OC)c(OC)c2)cc1 -10.5%, CCOC(=O)c1ccc(NC(=O)Cn2nnc(-c3ccc(C(F)(F)F)cc3)n2)cc1 -21.7%, Cc1ccc(-c2csc(=Nc3ccccc3)n2CCCO)cc1 -21.9%, CNC(=O)c1ccc(NC(=O)c2nsc3ccccc23)cc1 -3.68%, CCOC(=O)c1ccc(OCC2c3cc(OC)c(OC)cc3CCN2C(=O)Cc2ccc(OC)c(OC)c2)cc1 (centres undefined) -13.1%, CCN1Cc2cccc(C(=O)Nc3ccc(F)cc3)c2C1=O -0.169%, COc1ccc2c(c1)c(N1CCCC1=O)c(C(=O)Nc1ccc(Cl)cc1C)n2C -21.1%, Cc1ccc(N2CC(c3nnc(Cc4ccc(F)cc4Cl)o3)CC2=O)cc1 (centres undefined) -18.1%, CCCCNC(=O)c1ccc(-c2nc(CS(=O)(=O)c3ccc(C)cc3)c(C)o2)cc1 -17.7%
